# Data reported in the supplement of paper PMC8728848.
# This is one part of the list.
# B1: HPA (Helix pomatia), Q575S3 (protein)
# chain: MWAHLTGLLLICALSLSAAQRAQTGEIDCGSDSSWPKDPSDNPNRDNTREIVKHVTFSPQFCREPKVILSVTTLDAEHTKNLRYEARLKSVSPSGLSASCYSWHDGTIYRMKLSWLAVED
# Tests used:
# Assay in all cases: glycan array binding signal (z-score within array); higher = stronger binding
# Settings in all cases: glycan notation: IUPAC condensed, linker removed
# [1] = molecular target: GalNAc3S(b1-4)[Fuc(a1-3)]GlcNAc
# Outline: (§1)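 Glycan array data were curated from 3228 arrays in the Consortium for Functional Glycomics database and kept only where the protein sequence was available. Glycan names were converted to IUPAC-condensed notation, and columns mapping to the same glycan were averaged. The binding signal is a within-array Z-score, averaged across arrays of the same protein sequence at different concentrations or buffers and across linkers. Negative Z-scores can be read as non-binding.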
# GalNAc4S6S(b1-4)GlcNAc = molecular target: GalNAc4S6S(b1-4)GlcNAc
# Outline: as §1
# GalNAc6S(b1-4)GlcNAc = molecular target: GalNAc6S(b1-4)GlcNAc
# Outline: as §1
# Glc(a1-4)Glc = molecular target: Glc(a1-4)Glc
# Outline: as §1
# [2] = molecular target: Glc(a1-4)Glc(a1-4)Glc(a1-4)Glc
# Outline: as §1
# Glc(a1-6)Glc(a1-6)Glc = molecular target: Glc(a1-6)Glc(a1-6)Glc
# Outline: as §1
# [3] = molecular target: Glc(a1-6)Glc(a1-6)Glc(a1-6)Glc
# Outline: as §1
# Glc(b1-4)Glc = molecular target: Glc(b1-4)Glc
# Outline: as §1
# Glc(b1-6)Glc = molecular target: Glc(b1-6)Glc
# Outline: as §1
# GlcA(b1-3)Gal = molecular target: GlcA(b1-3)Gal
# Outline: as §1
# GlcA(b1-3)GlcNAc = molecular target: GlcA(b1-3)GlcNAc
# Outline: as §1
# GlcA(b1-6)Gal = molecular target: GlcA(b1-6)Gal
# Outline: as §1
# [4] = molecular target: GlcA3S(b1-3)Gal(b1-4)GlcNAc(b1-2)Man
# Outline: as §1
# [5] = molecular target: GlcA3S(b1-3)Gal(b1-4)GlcNAc(b1-3)Gal(b1-4)Glc
# Outline: as §1
# [6] = molecular target: GlcNAc(a1-3)Gal(b1-4)GlcNAc
# Outline: as §1
# [7] = molecular target: GlcNAc(a1-4)Gal(b1-3)GlcNAc
# Outline: as §1
# [8] = molecular target: GlcNAc(a1-4)Gal(b1-4)GalNAc
# Outline: as §1
# [9] = molecular target: GlcNAc(a1-4)Gal(b1-4)GlcNAc
# Outline: as §1
# [10] = molecular target: GlcNAc(a1-4)Gal(b1-4)GlcNAc(b1-3)Gal(b1-4)Glc
# Outline: as §1
# [11] = molecular target: GlcNAc(a1-4)Gal(b1-4)GlcNAc(b1-3)Gal(b1-4)GlcNAc
# Outline: as §1
# [12] = molecular target: GlcNAc(a1-4)Gal(b1-4)GlcNAc(b1-3)Gal(b1-4)GlcNAc(b1-3)Gal(b1-4)GlcNAc
# Outline: as §1
# [13] = molecular target: GlcNAc(a1-4)Gal(b1-4)GlcNAc(b1-3)Gal(b1-4)[Fuc(a1-3)]GlcNAc(b1-3)Gal(b1-4)[Fuc(a1-3)]GlcNAc
# Outline: as §1
# [14] = molecular target: GlcNAc(a1-6)Gal(b1-4)GlcNAc
# Outline: as §1
# [15] = molecular target: GlcNAc(b1-2)Gal(b1-3)GalNAc
# Outline: as §1
# [16] = molecular target: GlcNAc(b1-2)Man(a1-3)[GlcNAc(b1-2)Man(a1-6)]Man(b1-4)GlcNAc(b1-4)GlcNAc
# Outline: as §1
# [17] = molecular target: GlcNAc(b1-2)Man(a1-3)[GlcNAc(b1-2)Man(a1-6)]Man(b1-4)GlcNAc(b1-4)[Fuc(a1-6)]GlcNAc
# Outline: as §1
# [18] = molecular target: GlcNAc(b1-2)Man(a1-3)[GlcNAc(b1-4)][GlcNAc(b1-2)Man(a1-6)]Man(b1-4)GlcNAc(b1-4)GlcNAc
# Outline: as §1
# [19] = molecular target: GlcNAc(b1-2)Man(a1-3)[GlcNAc(b1-4)][GlcNAc(b1-2)Man(a1-6)]Man(b1-4)GlcNAc(b1-4)[Fuc(a1-6)]GlcNAc
# Outline: as §1
# [20] = molecular target: GlcNAc(b1-2)[GlcNAc(b1-4)]Man(a1-3)[GlcNAc(b1-2)Man(a1-6)]Man(b1-4)GlcNAc(b1-4)GlcNAc
# Outline: as §1
# [21] = molecular target: GlcNAc(b1-2)[GlcNAc(b1-4)]Man(a1-3)[GlcNAc(b1-4)][GlcNAc(b1-2)Man(a1-6)]Man(b1-4)GlcNAc(b1-4)GlcNAc
# Outline: as §1
# [22] = molecular target: GlcNAc(b1-2)[GlcNAc(b1-4)]Man(a1-3)[GlcNAc(b1-4)][GlcNAc(b1-2)[GlcNAc(b1-6)]Man(a1-6)]Man(b1-4)GlcNAc(b1-4)GlcNAc
# Outline: as §1
# [23] = molecular target: GlcNAc(b1-2)[GlcNAc(b1-4)]Man(a1-3)[GlcNAc(b1-4)][GlcNAc(b1-2)[GlcNAc(b1-6)]Man(a1-6)]Man(b1-4)GlcNAc(b1-4)[Fuc(a1-6)]GlcNAc
# Outline: as §1
# [24] = molecular target: GlcNAc(b1-2)[GlcNAc(b1-6)]Man(a1-6)[GlcNAc(b1-2)Man(a1-3)]Man(b1-4)GlcNAc(b1-4)GlcNAc
# Outline: as §1
# [25] = molecular target: GlcNAc(b1-2)[GlcNAc(b1-6)]Man(a1-6)[GlcNAc(b1-2)Man(a1-3)]Man(b1-4)GlcNAc(b1-4)[Fuc(a1-6)]GlcNAc
# Outline: as §1
# [26] = molecular target: GlcNAc(b1-2)[GlcNAc(b1-6)]Man(a1-6)[GlcNAc(b1-2)Man(a1-3)][GlcNAc(b1-4)]Man(b1-4)GlcNAc(b1-4)GlcNAc
# Outline: as §1
# [27] = molecular target: GlcNAc(b1-2)[GlcNAc(b1-6)]Man(a1-6)[GlcNAc(b1-4)][GlcNAc(b1-2)Man(a1-3)]Man(b1-4)GlcNAc(b1-4)GlcNAc
# Outline: as §1
# GlcNAc(b1-3)Fuc = molecular target: GlcNAc(b1-3)Fuc
# Outline: as §1
# GlcNAc(b1-3)Gal = molecular target: GlcNAc(b1-3)Gal
# Outline: as §1
# [28] = molecular target: GlcNAc(b1-3)Gal(b1-3)GalNAc
# Outline: as §1
# GlcNAc(b1-3)Gal(b1-4)Glc = molecular target: GlcNAc(b1-3)Gal(b1-4)Glc
# Outline: as §1
# [29] = molecular target: GlcNAc(b1-3)Gal(b1-4)GlcNAc
# Outline: as §1
# [30] = molecular target: GlcNAc(b1-3)Gal(b1-4)GlcNAc(b1-2)Man(a1-3)[GlcNAc(b1-3)Gal(b1-4)GlcNAc(b1-2)Man(a1-6)]Man(b1-4)GlcNAc(b1-4)GlcNAc
# Outline: as §1
# [31] = molecular target: GlcNAc(b1-3)Gal(b1-4)GlcNAc(b1-2)Man(a1-3)[GlcNAc(b1-3)Gal(b1-4)GlcNAc(b1-2)Man(a1-6)]Man(b1-4)GlcNAc(b1-4)[Fuc(a1-6)]GlcNAc
# Outline: as §1
# [32] = molecular target: GlcNAc(b1-3)Gal(b1-4)GlcNAc(b1-2)[GlcNAc(b1-3)Gal(b1-4)GlcNAc(b1-6)]Man(a1-6)[GlcNAc(b1-3)Gal(b1-4)GlcNAc(b1-2)Man(a1-3)]Man(b1-4)GlcNAc(b1-4)GlcNAc
# Outline: as §1
# [33] = molecular target: GlcNAc(b1-3)Gal(b1-4)GlcNAc(b1-3)Gal(b1-4)GlcNAc
# Outline: as §1
binder,measurement,setting,value
B1,glycan array binding signal (z-score),[1],-0.26
same,glycan array binding signal (z-score),GalNAc4S6S(b1-4)GlcNAc,-0.265
same,glycan array binding signal (z-score),GalNAc6S(b1-4)GlcNAc,-0.261
same,glycan array binding signal (z-score),Glc(a1-4)Glc,-0.26
same,glycan array binding signal (z-score),[2],-0.251
same,glycan array binding signal (z-score),Glc(a1-6)Glc(a1-6)Glc,-0.262
same,glycan array binding signal (z-score),[3],-0.253
same,glycan array binding signal (z-score),Glc(b1-4)Glc,-0.26
same,glycan array binding signal (z-score),Glc(b1-6)Glc,-0.266
same,glycan array binding signal (z-score),GlcA(b1-3)Gal,-0.262
same,glycan array binding signal (z-score),GlcA(b1-3)GlcNAc,-0.223
same,glycan array binding signal (z-score),GlcA(b1-6)Gal,-0.262
same,glycan array binding signal (z-score),[4],-0.254
same,glycan array binding signal (z-score),[5],-0.256
same,glycan array binding signal (z-score),[6],4.69
same,glycan array binding signal (z-score),[7],2.46
same,glycan array binding signal (z-score),[8],1.46
same,glycan array binding signal (z-score),[9],2.55
same,glycan array binding signal (z-score),[10],3.77
same,glycan array binding signal (z-score),[11],4.37
same,glycan array binding signal (z-score),[12],4.21
same,glycan array binding signal (z-score),[13],2.8
same,glycan array binding signal (z-score),[14],0.921
same,glycan array binding signal (z-score),[15],-0.258
same,glycan array binding signal (z-score),[16],-0.268
same,glycan array binding signal (z-score),[17],-0.257
same,glycan array binding signal (z-score),[18],-0.245
same,glycan array binding signal (z-score),[19],-0.264
same,glycan array binding signal (z-score),[20],-0.181
same,glycan array binding signal (z-score),[21],-0.201
same,glycan array binding signal (z-score),[22],-0.18
same,glycan array binding signal (z-score),[23],0.175
same,glycan array binding signal (z-score),[24],-0.252
same,glycan array binding signal (z-score),[25],-0.251
same,glycan array binding signal (z-score),[26],-0.24
same,glycan array binding signal (z-score),[27],-0.266
same,glycan array binding signal (z-score),GlcNAc(b1-3)Fuc,-0.107
same,glycan array binding signal (z-score),GlcNAc(b1-3)Gal,-0.271
same,glycan array binding signal (z-score),[28],-0.215
same,glycan array binding signal (z-score),GlcNAc(b1-3)Gal(b1-4)Glc,-0.269
same,glycan array binding signal (z-score),[29],-0.268
same,glycan array binding signal (z-score),[30],-0.256
same,glycan array binding signal (z-score),[31],-0.244
same,glycan array binding signal (z-score),[32],-0.201
same,glycan array binding signal (z-score),[33],-0.248
